{
  "source": "PubChem BioAssay AID2546",
  "about": "(National Center for Advancing Translational Sciences (NCATS), 2010)",
  "note": "Among all 310,000 compounds or so, about 11,000 (3.5%) were called active. The shares of active, inactive and inconclusive entries below differ from those in the screen. The call rests on the fitted dose curve; in most records, active means well fitted inhibition curve with a large enough effect; inconclusive means small, poorly fitted or top-dose-only effect, or effect the other way; inactive means flat fitted curve, though single readings scatter. No potency is given beside an inconclusive call; the fits are too rough. Potency means the concentration at half of the fitted maximal effect; tags describe the fitted curve by direction and shape.",
  "data": [
    {"assay": "VP16 counterscreen qHTS for inhibitors of ROR gamma transcriptional activity;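 further: Gal4-VP16 expression switched on by copper sulfate through the metallothionein promoter; nearly all actives have a fitted effect of over 50% in size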", "settings": "Drosophila S2 Gal4-VP16 UAS-luciferase, luminescence, 20 h; series mostly up to 53.6 µM", "values": [
      {"molecule": "O=C(Nc1cccc(F)c1)c1ccc(CSc2ccccc2)o1", "Potency": "inconclusive [inhibitor, single point]"},
      {"molecule": "Cc1nc2nc(SCC(=O)c3ccc([N+](=O)[O-])cc3)[nH]c2cc1Br", "Potency": "inconclusive [inhibitor, single point]"},
      {"molecule": "CCOc1ccc(C(=O)NC(=S)Nc2ccc(NC(=O)c3ccco3)c(C)c2)cc1[N+](=O)[O-]", "Potency": "inconclusive [inhibitor, full curve, poor fit]"},
      {"molecule": "CC(=O)N1c2ccc(S(=O)(=O)N(C)CC(=O)NC(C)c3ccccc3)cc2CC1C", "note": "(stereo not drawn)", "Potency": "inactive"},
      {"molecule": "CCCCCCNC(=O)CC(c1ccccc1)c1cc(Br)ccc1O", "note": "(stereo not drawn)", "Potency": "active: 10 µM"},
      {"molecule": "CC(=O)Nc1nc(NC(=O)/C=C/c2ccccc2)n(-c2ccccc2)n1", "Potency": "active: 0.891 µM"},
      {"molecule": "Cc1ccccc1NC(=O)Nc1c(C)n(C)n(-c2ccccc2)c1=O", "Potency": "inactive"},
      {"molecule": "CC(NC(=S)Nc1ccccc1Cl)C(c1ccccc1)N1CCOCC1", "note": "(stereo not drawn)", "Potency": "inconclusive [inhibitor, single point]"},
      {"molecule": "O=C(Nc1nccs1)c1ccc(Cl)s1", "Potency": "inactive"},
      {"molecule": "COc1ccccc1N=Nc1ccc(O)c2ncccc12", "Potency": "active: 3.16 µM"},
      {"molecule": "O=c1cc(-c2c(F)c(F)c(F)c(F)c2F)oc2ccccc12", "Potency": "inconclusive [inhibitor, partial curve]"},
      {"molecule": "COc1ccc(CCNC(=O)C2CC(c3ccccc3F)=NO2)cc1", "note": "(stereo not drawn)", "Potency": "inactive"},
      {"molecule": "CCN(CC(=O)N1CCC(C)CC1)S(=O)(=O)c1ccc(C)cc1", "Potency": "inactive"},
      {"molecule": "CS(=O)(=O)N(CC(=O)NCCc1ccccc1)c1cccc([N+](=O)[O-])c1", "Potency": "inconclusive [activator, single point]"},
      {"molecule": "O=C(NC(=S)N1CCN(C/C=C/c2ccccc2)CC1)c1c(F)cccc1F", "Potency": "active: 2.82 µM"},
      {"molecule": "O=C(Nc1ccc(Cl)c(C(F)(F)F)c1)c1ccncc1", "Potency": "inactive"},
      {"molecule": "C/C(CC(=O)NC1CCCCC1)=N\\NC(=O)c1ccccc1C", "Potency": "inactive"},
      {"molecule": "CN(C)c1cc[n+](CC(=O)Nc2cc(C(F)(F)F)ccc2Cl)cc1", "Potency": "inactive"},
      {"molecule": "COc1cc(/C=N/NC(N)=S)ccc1OCC(=O)Nc1ccc(C)c(C)c1", "Potency": "inconclusive [inhibitor, single point]"},
      {"molecule": "Cc1ccc(-c2nc3ncccc3o2)cc1NC(=O)c1cccnc1", "Potency": "inconclusive [inhibitor, single point]"},
      {"molecule": "CC1Cc2ccccc2N1C(=O)CSc1nnc(CNc2ccccc2)o1", "note": "(stereo not drawn)", "Potency": "inactive"},
      {"molecule": "CCOc1ccccc1CNS(=O)(=O)c1ccc2c(c1)oc(=O)n2C", "Potency": "inactive"},
      {"molecule": "COc1ccc(C(=O)NNC(=O)c2ccccn2)cc1", "Potency": "active: 5.62 µM"},
      {"molecule": "CCOc1ccc(N2CC(C(=O)NCc3cccc(C)c3)CC2=O)cc1", "note": "(stereo not drawn)", "Potency": "inactive"},
      {"molecule": "CC(C)[C@H](NC(=O)c1ccccc1)C(=O)OCC(=O)/C=C1/N(C)c2ccccc2C1(C)C", "Potency": "inconclusive [inhibitor, single point]"},
      {"molecule": "COc1cccc(-n2nnnc2SCC(=O)NC2CCCCC2)c1", "Potency": "inconclusive [activator, single point]"},
      {"molecule": "Cc1ccc2c(c1)C1CN(C)CCC1N2S(=O)(=O)c1ccc(Oc2ccc([N+](=O)[O-])cc2)cc1", "note": "(stereo not drawn)", "Potency": "inconclusive [inhibitor, single point]"},
      {"molecule": "COCCNC(=S)Nc1cc2oc3ccccc3c2cc1OC", "Potency": "active: 7.08 µM"},
      {"molecule": "Cc1cccc(OCCNC(=S)NC(=O)c2cccnc2)c1", "Potency": "inconclusive [inhibitor, single point]"},
      {"molecule": "O=C(Nc1nnc(SCC(=O)N2CCOCC2)s1)c1ccccc1", "Potency": "inconclusive [inhibitor, single point]"},
      {"molecule": "CC(=O)Nc1ccc(NC(=O)C2CC(=O)N(c3cccc(Cl)c3)C2)cc1", "note": "(stereo not drawn)", "Potency": "inactive"},
      {"molecule": "O=C(CSc1nccn1-c1ncc(C(F)(F)F)cc1Cl)c1ccc(Br)cc1", "Potency": "inconclusive [inhibitor, full curve, poor fit]"},
      {"molecule": "Cc1ccc(C(C(=O)NCC2CCCO2)N(Cc2ccccc2)C(=O)c2ccc(-c3ccccc3)[nH]2)o1", "note": "(stereo not drawn)", "Potency": "inconclusive [inhibitor, single point]"},
      {"molecule": "O=C(CCCN1C(=O)/C(=C\\c2cccs2)SC1=S)Nc1cccnc1", "Potency": "inconclusive [inhibitor, partial curve]"},
      {"molecule": "CCc1ccc(N2C(=O)C(Cl)=C(N3CCOCC3)C2=O)cc1", "Potency": "active: 12.6 µM"},
      {"molecule": "COc1ccc(-c2csc(NC(=O)CSc3ncn[nH]3)n2)cc1OC", "Potency": "inconclusive [inhibitor, single point]"},
      {"molecule": "CC(C)[C@@H](CC(=O)N[C@@H]1CCCC[C@H]1C(=O)N[C@H](CC(=O)N[C@@H](CCC(=O)O)CC(=O)O)Cc1c[nH]c2ccccc12)NC(=O)C[C@H](Cc1ccccc1)NC(=O)[C@@H]1CNCC[C@H]1N", "Potency": "inactive"},
      {"molecule": "CC1CCC2=NN(C(=O)c3ccco3)C(O)(C(F)(F)F)C2C1", "note": "(stereo not drawn)", "Potency": "inactive"},
      {"molecule": "NNc1ccc(Cc2ccc(Cl)cc2Cl)nn1", "Potency": "inconclusive [inhibitor, single point]"},
      {"molecule": "COc1ccc2nc(NC(=O)c3ccco3)sc2c1", "Potency": "active: 10 µM"},
      {"molecule": "O=C(/C=C/c1ccc(F)cc1)NCCC1=CCCCC1", "Potency": "inconclusive [inhibitor, single point]"},
      {"molecule": "O=C(CSc1ncccn1)c1ccccc1Br", "Potency": "inconclusive [activator, full curve, poor fit]"},
      {"molecule": "Cc1ccc(O)c(CC(C)C)n1", "Potency": "inactive"},
      {"molecule": "Cc1ccccc1OCC(=O)N1N=C(c2cccnc2)CC1(O)C(F)(F)F", "note": "(stereo not drawn)", "Potency": "inconclusive [inhibitor, single point]"},
      {"molecule": "CC(C)CCNC(=O)C1CCC(CNS(=O)(=O)c2cccc3nsnc23)CC1", "note": "(stereo not drawn)", "Potency": "inactive"},
      {"molecule": "Cc1ccc(S(=O)(=O)Oc2ccccc2/C=N/NC(=O)c2c(Cl)cnn2C)cc1", "Potency": "inconclusive [inhibitor, single point]"},
      {"molecule": "Cc1ccc(C(=O)NC(=S)Nc2c(C)ccc3nsnc23)cc1", "Potency": "inconclusive [inhibitor, single point]"},
      {"molecule": "C/C(=N/NS(=O)(=O)c1ccc(CC(C)C)cc1)c1ccncc1", "Potency": "inconclusive [inhibitor, single point]"}
    ]}
  ]
}
